The source of these data is PMC7819943, “Rice protein-binding microarrays: a tool to detect cis-acting elements near promoter regions in rice”.

The list shows a part of the results.

The target of this experiment is T1, OsWOX13 (Oryza sativa, UniProt Q5QMM3 1-267).
T1 sequence: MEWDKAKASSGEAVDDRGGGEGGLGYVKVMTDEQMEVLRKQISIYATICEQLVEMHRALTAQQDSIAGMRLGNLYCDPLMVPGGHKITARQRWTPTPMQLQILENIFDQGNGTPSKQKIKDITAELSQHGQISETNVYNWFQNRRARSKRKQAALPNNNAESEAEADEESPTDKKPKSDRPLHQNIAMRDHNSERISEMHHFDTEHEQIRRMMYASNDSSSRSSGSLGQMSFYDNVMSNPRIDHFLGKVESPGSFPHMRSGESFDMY
Put plainly: protein-binding microarray (RPBM); PBS, 2% BSA, 51.3 ng/ul salmon testes DNA, 50 uM zinc acetate, 200 nM TF, 25 C, 1 h; high values mean tight binding. The note with it: protein: recombinant; tags: N-terminal polyhistidine and DsRed monomer fusion (pET32a); label: CyDye5-dUTP incorporated in the synthesized complementary strand; 3' TTTTT single-stranded linker to array surface; dsDNA, one strand shown. In a few lines:
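An Axon 4000B scanner gave the binding signal as per-feature fluorescence intensity in arbitrary units. This followed washing of a custom Agilent array that had been incubated for 1 h at 25 °C with 200 nM protein in PBS, 2% BSA, salmon testes DNA and 50 µM zinc acetate. The proteins were transcription factors fused at the N-terminus to polyhistidine and DsRed, expressed in E. coli BL21-CodonPlus and purified on Ni–NTA.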
For “GCTTTTGATTGGCCCAGGTAAAGGTTCCAGCCACTTCGCTCGGAGTCACCTAGTGCAG”, the binding signal was 43300 fluorescence intensity (a.u.). With “TCATGACAGATCAAAACAAACTGGATTTAATCGATTCGAACGGAGTCACCTAGTGCAG” the figure was 11100 fluorescence intensity (a.u.); with “AACGGGTGATTATTGTAGTTCCTCGATCGACAACTCCGACCGGAGTCACCTAGTGCAG”, 7760 fluorescence intensity (a.u.).

On to “CTGTTTGGTTCTTTGATTTATAAATCTCTGTGGTTTACAACGGAGTCACCTAGTGCAG”, for which the binding signal was 9950 fluorescence intensity (a.u.). Regarding “TGTTATTGTCTTATTGACTAATGTATTGTAGGATCATTGTCGGAGTCACCTAGTGCAG”, the binding signal was 3500 fluorescence intensity (a.u.).

For the sequence “GTAGTCAAGATTGAAGTGTGATCAATAGGTGCAGAGATATCGGAGTCACCTAGTGCAG”, the binding signal was 9770 fluorescence intensity (a.u.).

With “CTTGATTTGGCGATCAGAAAATGCATTCTAATTTTGTTTACGGAGTCACCTAGTGCAG”, the binding signal is 17600 fluorescence intensity (a.u.).

With “ATTATGTGATAGATTGATCCACAAATATTCAAGGTAAAATCGGAGTCACCTAGTGCAG”, the binding signal is 30500 fluorescence intensity (a.u.). With “TATGATTTGACAATGTGGTGTTACAGTAAATATTTACTAACGGAGTCACCTAGTGCAG” the figure was 21800 fluorescence intensity (a.u.). With “CGTAAATGAACTGTCAATCGAAATTTAGCGAGATTATGGACGGAGTCACCTAGTGCAG” the figure was 36700 fluorescence intensity (a.u.).

Consider “ATGAAACACATAATTTACCTTATATTTGGAATTGAGGGAGCGGAGTCACCTAGTGCAG”, for which the binding signal was 8680 fluorescence intensity (a.u.).

Turning to “CTAATTGATTAGTAAACTATTTATATAGGACTGTTGTTTTCGGAGTCACCTAGTGCAG”, the binding signal was 58300 fluorescence intensity (a.u.).

For the sequence “ATATAATAATAGATAGATAGATAGATAGATAGATAGATAGCGGAGTCACCTAGTGCAG”, the binding signal was 49300 fluorescence intensity (a.u.). Then “GCAATTGATTGTGAAGTATTCCTTTCAGTTCGGCTTGAAGCGGAGTCACCTAGTGCAG”, with 45100 fluorescence intensity (a.u.); and “ATGGTTTGTACTCTGATTATCTATATAATTCAGGAAATAGCGGAGTCACCTAGTGCAG”, with 5030 fluorescence intensity (a.u.); and “TTTTAAACAGATGGTTTGCATATCAAAATGTTTAGAACACCGGAGTCACCTAGTGCAG”, with 9430 fluorescence intensity (a.u.).

For the sequence “TTAATTGCAGGAATTAGCTACTCGGCCGTACGTTAATCCGCGGAGTCACCTAGTGCAG”, the binding signal is 8410 fluorescence intensity (a.u.).

For the sequence “ATAATTTAATTTAGCACATAATGACTACAAATAGGATTTACGGAGTCACCTAGTGCAG”, the binding signal is 9020 fluorescence intensity (a.u.). Then “TTCTGATTTGGCGGCGGGAGGGCCCCACCTGTCAGTGAGACGGAGTCACCTAGTGCAG”, with 8160 fluorescence intensity (a.u.); and “GTTATTCATGATTTATATTCCTAAGGTTTGACTTAAACATCGGAGTCACCTAGTGCAG”, with 7020 fluorescence intensity (a.u.); and “AAGACCTAATTGCATAAGGTGCACTAGCAGCATATCTATTCGGAGTCACCTAGTGCAG”, with 3430 fluorescence intensity (a.u.). Then “GAGAGAGGTGGATTGATTTGAAGCAGAGCGCAGCAAGCATCGGAGTCACCTAGTGCAG”, with 10700 fluorescence intensity (a.u.); and “CTAGACATATATATTTATCTAGATTCATTAACATCCATATCGGAGTCACCTAGTGCAG”, with 5320 fluorescence intensity (a.u.). Regarding “TGCTAATGGCGGCCATAGATTTGTACAAGTATCAGCTGAGCGGAGTCACCTAGTGCAG”, the binding signal is 4480 fluorescence intensity (a.u.). With “TATCAGTAAATTATATAAATTTTAAATGTTATGTAGCAAACGGAGTCACCTAGTGCAG” the figure was 6100 fluorescence intensity (a.u.).

Regarding “CTTACATTAATGCACATAATTTTCTTGAAACTAATAATGCCGGAGTCACCTAGTGCAG”, the binding signal was 13000 fluorescence intensity (a.u.). Then “GCAGATTGCCTGACAGTTCTGATGAGTTGCTACCGTCATCCGGAGTCACCTAGTGCAG”, with 28700 fluorescence intensity (a.u.). Then “GCGAACTTAATTGCTGCTAGAATGCTGCTGAAATTGGTGACGGAGTCACCTAGTGCAG”, with 8360 fluorescence intensity (a.u.); and “ATAGTTAGACGGGCGTAATGATTGAAAAGCCTAAGCAAATCGGAGTCACCTAGTGCAG”, with 24700 fluorescence intensity (a.u.); and “TCCTGATTCCCCGAATTATACCGTCCAGTTGCTCTCCTCCCGGAGTCACCTAGTGCAG”, with 3170 fluorescence intensity (a.u.). With “AAAATAGATAATTGCCTTCTTTCAGTCACCCATAAAAGTACGGAGTCACCTAGTGCAG” the figure was 8890 fluorescence intensity (a.u.); with “CTGATTATGAGATAGGATAAGAAGATTGTACGTTTGAGAACGGAGTCACCTAGTGCAG”, 7170 fluorescence intensity (a.u.); with “GGTGTAATTAACCATTAGGCAGAATTGCTTCGATATTATCCGGAGTCACCTAGTGCAG”, 20300 fluorescence intensity (a.u.). In the case of “ATGTAATTGAGATACATGGGCCTCTAGTGGGCCGACTGGCCGGAGTCACCTAGTGCAG”, the binding signal was 22100 fluorescence intensity (a.u.). For “AAAGCCCCATGATTACATAAACGGGGACAGGTTTGTGATGCGGAGTCACCTAGTGCAG”, the binding signal is 5370 fluorescence intensity (a.u.).

Regarding “AGTGTATAAATTACCGCCTAATTATGAAAGATCATCCAATCGGAGTCACCTAGTGCAG”, the binding signal was 8910 fluorescence intensity (a.u.). Turning to “GTTTAATTAGCGGCAGCGGAGCTCGCCTTGGTCTCGCTTTCGGAGTCACCTAGTGCAG”, the binding signal was 10900 fluorescence intensity (a.u.). With “AGGTGCAAATTGACTCCTTAAGTGGTTTTGAAAATATGTACGGAGTCACCTAGTGCAG” the figure was 11100 fluorescence intensity (a.u.). Then “CCAAACAGCTGTTAACATTCCATGTTTTCTTAGAGCTCTCCGGAGTCACCTAGTGCAG”, with 4020 fluorescence intensity (a.u.); and “ATTAATAAATTCAGCCAATTAGTTGGAGTACGACTTTGAGCGGAGTCACCTAGTGCAG”, with 12500 fluorescence intensity (a.u.).

On to “ATCAATACAGATCAAATTAATGTATCCCACTCAGGGCAATCGGAGTCACCTAGTGCAG”, for which the binding signal is 4590 fluorescence intensity (a.u.). In the case of “AAAGGTTGTGGTTAATTAGTTAACGACCAATCGAGCCTACCGGAGTCACCTAGTGCAG”, the binding signal was 4380 fluorescence intensity (a.u.).
